From PubChem BioAssay AID1508642 (National Center for Advancing Translational Sciences (NCATS), 2021)
Out of some 43,000 compounds screened, about 200 (0.47%) were called active. Not shown: some 12% with an inconclusive outcome. Calls come from the whole dose curve; as a rule, active = well fitted cell-killing curve with a large enough effect; inconclusive = small, poorly fitted or top-dose-only effect, or effect the other way; inactive = flat fitted curve, though single readings scatter. This is one part of the list.
% is set by controls: 0 for no effect and ±100 for the full control effect.

Assay: Cell viability qHTS assay in S16 Pmp22-F2sN cells; note: nearly all actives have a fitted effect of over 65% in size
Conditions: S16 Pmp22-F2sN Schwann cells viability, CellTiter-Glo, 24 h; series mostly up to 57.5 µM; activity change, negative = cytotoxicity: at the top concentration
Procedure, shortened: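 Used to flag compounds lowering reporter output through toxicity, this quantitative HTS measures ATP-based CellTiter-Glo luminescence in S16 Pmp22-F2sN Schwann cells after 24 h compound exposure at 37C.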
With COc1ccc(C(=O)Nc2cccc(OCc3cc(=O)n4c5c(sc4n3)CCCC5)c2)cc1 the “activity change, negative = cytotoxicity” value was inactive: 11.6%.
With O=C(O)c1ccc(-n2c(/C=C\c3ccc(O)cc3)nc3ccccc3c2=O)cc1 the “activity change, negative = cytotoxicity” value was inactive: -4.1%.
In the case of Cc1ccc(C2=Nc3ccccc3N(CC(=O)NCc3ccc(F)cc3)C(=O)C2)cc1C, the “activity change, negative = cytotoxicity” value is reported as inactive: -23.3%.
For CCOC(=O)c1ccccc1NC(=O)c1sc2ncn(Cc3cccc(F)c3)c(=O)c2c1C, the “activity change, negative = cytotoxicity” value was inactive: 13.3%.
In the case of CC(C)NC(=O)CCCN1C(=O)CCn2nc(-c3cccn3C)cc21, the “activity change, negative = cytotoxicity” value is reported as inactive: 2.6%.
For CCN1CCN(c2cc3c(cc2F)c(=O)c(S(=O)(=O)c2ccccc2)cn3C)CC1, the “activity change, negative = cytotoxicity” value was inactive: 5.39%.
For COc1ccccc1NC(=O)CSc1nc2ccccc2c2nc(-c3ccccc3)nn12, the “activity change, negative = cytotoxicity” value was inactive: 11.6%.
For COc1cccc(C(=O)c2cn(CC(=O)NCc3ccccc3)c3nc(C)ccc3c2=O)c1, the “activity change, negative = cytotoxicity” value was inactive: -10.7%.
In the case of COc1ccc(OCc2nc3c4c(-c5ccccc5)c(-c5ccccc5)oc4ncn3n2)cc1, the “activity change, negative = cytotoxicity” value is reported as inactive: -14.1%.
With COc1ccc(CNC(=O)CSc2nc3ccccc3nc2Cc2ccccc2OC)cc1 the “activity change, negative = cytotoxicity” value was inactive: 9.84%.
For COC(=O)c1sc(NC(=O)/C=C/c2ccc(OC)c(OC)c2)c(C(=O)OC)c1C, the “activity change, negative = cytotoxicity” value was inactive: 5.11%.
In the case of COc1ccccc1CNC(=O)c1ccc2c(c1)nc(C)n2-c1ccccc1OC, the “activity change, negative = cytotoxicity” value is reported as inactive: 0.14%.
For Cc1nn2c(-c3ccco3)ccnc2c1-c1ccc(F)cc1, the “activity change, negative = cytotoxicity” value was inactive: 8.12%.
For CCCCNc1nc2c(S(=O)(=O)c3ccc(C)c(C)c3)nnn2c2ccsc12, the “activity change, negative = cytotoxicity” value was inactive: -2.41%.
In the case of COc1cc(Nc2ncc3c(n2)CCN(Cc2cc(Br)cs2)C3)cc(OC)c1, the “activity change, negative = cytotoxicity” value is reported as inactive: -5.98%.
For COC(=O)c1ccccc1NC(=O)c1ccc2c(c1)CCN2S(C)(=O)=O, the “activity change, negative = cytotoxicity” value was inactive: -5.03%.
For Cc1cc(Nc2ccc(F)cc2)n2c(nc3ccccc32)c1C#N, the “activity change, negative = cytotoxicity” value was inactive: 7.76%.
With Cc1ccc(CSc2nc3c([nH]c4ccccc43)c(=O)n2C)cc1 the “activity change, negative = cytotoxicity” value was inactive: -1.66%.
For Cc1c(-c2nc(-c3ccccc3)no2)nnn1-c1cccc(C(F)(F)F)c1, the “activity change, negative = cytotoxicity” value was inactive: 4.2%.
For CCOc1ccc(NC(=O)Cn2c(C)cc3ccccc3c2=O)cc1, the “activity change, negative = cytotoxicity” value was inactive: 21.3%.
In the case of Cc1nc2ccccn2c(=O)c1NC(=O)c1ccc(C(F)(F)F)cc1, the “activity change, negative = cytotoxicity” value is reported as inactive: -9.14%.
With COc1ccc(NC(=O)c2cccn2-c2nnc(N3CCCCC3)s2)cc1Cl the “activity change, negative = cytotoxicity” value was inactive: -1.12%.
With Cc1ccc(-c2nnc(C3CCN(S(=O)(=O)c4ccc(C)c(C)c4)CC3)o2)cc1 the “activity change, negative = cytotoxicity” value was inactive: 1.83%.
In the case of CCOc1ccccc1NC(=O)CN1C(=O)CC(c2ccc(OC)c(OC)c2)Sc2ccccc21 (stereo unspecified), the “activity change, negative = cytotoxicity” value is reported as inactive: -14%.
For CCCCOC(=O)c1ccc(NC(=O)CSc2nc3c(c(=O)[nH]2)CCCC3)cc1, the “activity change, negative = cytotoxicity” value was inactive: -24.3%.
With Cn1c(-n2cccc2)c(-c2c(-c3ccccc3)[nH]c3c2c(=O)n(C)c(=O)n3C)c(=O)n(C)c1=O the “activity change, negative = cytotoxicity” value was inactive: 1.88%.
With Cc1ccc(N2C(=O)CCSC23C(=O)N(Cc2ccccc2)c2ccccc23)cc1F (stereo unspecified) the “activity change, negative = cytotoxicity” value was inactive: 18.6%.
In the case of Cc1ccc(CNC(=O)Cn2c(=O)n(-c3ccc(Cl)cc3)c(=O)c3c(C)c(C)sc32)cc1, the “activity change, negative = cytotoxicity” value is reported as inactive: 5%.
With COc1ccc(OC)c(/C=C(/C#N)c2nc(-c3ccc(-c4ccccc4)cc3)cs2)c1 the “activity change, negative = cytotoxicity” value was inactive: 7.93%.
With O=C(NCc1ccccc1)c1nn(-c2ccccc2)nc1CO the “activity change, negative = cytotoxicity” value was inactive: -5.18%.
With O=C(NCc1ccc(F)cc1)c1cc2c(=O)n3ccccc3nc2s1 the “activity change, negative = cytotoxicity” value was inactive: 17.5%.
With Cc1cc(C)cc(NS(=O)(=O)c2ccc3[nH]cc(C(=O)N(C)Cc4ccccc4)c(=O)c3c2)c1 the “activity change, negative = cytotoxicity” value was inactive: 1.99%.
For Cc1ccccc1CN1C(=O)c2ccccc2Sc2ccc(C(=O)NC(C)c3ccccc3)cc21 (stereo unspecified), the “activity change, negative = cytotoxicity” value was inactive: 4.4%.
In the case of Cc1ccc(-n2c(=O)c3cccnc3n2CC(=O)Nc2cc(Cl)ccc2C)cc1, the “activity change, negative = cytotoxicity” value is reported as inactive: 26.1%.
With O=c1cc(-c2ccccc2)n2c(SCc3c(F)cccc3Cl)nnc2[nH]1 the “activity change, negative = cytotoxicity” value was inactive: -3.4%.
For CCCc1nn2c(=O)cc(COc3ccc(/C=C(\C#N)C(=O)Nc4ccccc4)cc3)nc2s1, the “activity change, negative = cytotoxicity” value was inactive: 21.9%.
With COc1ccc(C(CC(=O)NCc2ccccc2Cl)N2Cc3ccccc3C2=O)cc1OC (stereo unspecified) the “activity change, negative = cytotoxicity” value was inactive: 2.77%.
In the case of CC(C)CC(=O)NC1(C(F)(F)F)C(=O)Nc2c1c(=O)[nH]c(=O)n2-c1ccccc1 (stereo unspecified), the “activity change, negative = cytotoxicity” value is reported as inactive: -0.601%.
For Cc1ccc(NC(=O)CN(C)S(=O)(=O)c2cnc[nH]2)cc1, the “activity change, negative = cytotoxicity” value was inactive: 3.68%.
For Cc1ccc(NC(=O)C(=O)NCc2ccco2)cc1, the “activity change, negative = cytotoxicity” value was inactive: -12.8%.
In the case of Cc1ccc(C)c(CN2C(=O)c3ccccc3S(=O)c3ccc(C(=O)N4CCN(c5cccc(Cl)c5)CC4)cc32)c1 (stereo unspecified), the “activity change, negative = cytotoxicity” value is reported as inactive: 8.57%.
For Cc1ccc(NC(=O)Cn2c(=O)n(CCCCC(=O)NCc3ccccc3Cl)c(=O)c3ccccc32)cc1, the “activity change, negative = cytotoxicity” value was inactive: 13%.
In the case of COc1ccccc1OCC(=O)NCC(c1ccc(Cl)cc1)N1CCOCC1 (stereo unspecified), the “activity change, negative = cytotoxicity” value is reported as inactive: 0.0647%.
With CCOc1ccccc1NC(=O)C(CC)n1c(C(=O)OC)cc2occc21 (stereo unspecified) the “activity change, negative = cytotoxicity” value was inactive: 1.94%.
In the case of COc1cc(C2c3c(-c4ccccc4O)n[nH]c3C(=O)N2Cc2ccco2)ccc1OCC(C)C (stereo unspecified), the “activity change, negative = cytotoxicity” value is reported as inactive: -9.85%.
With CCc1cccc(C)c1NC(=O)CN1CCCN(Cc2ccccc2Cl)S1(=O)=O the “activity change, negative = cytotoxicity” value was inactive: -5.56%.
In the case of O=S(=O)(c1ccc(-n2cnnn2)cc1)N1CCN(c2cccc(Cl)c2)CC1, the “activity change, negative = cytotoxicity” value is reported as inactive: -3.13%.
With Cc1c(C(=O)N2CCCCCC2)c(S(=O)(=O)N(Cc2ccccc2)C(C)(C)C)c(C)n1C the “activity change, negative = cytotoxicity” value was inactive: 2.86%.
In the case of COc1ccc(Nc2oc(/C=C/c3cccc(OC)c3)nc2C#N)cc1, the “activity change, negative = cytotoxicity” value is reported as inactive: -0.614%.
For O=C(Cn1ncc2ccsc2c1=O)N1CCN(c2ccccc2F)CC1, the “activity change, negative = cytotoxicity” value was inactive: -0.0763%.
With CCCCN(CC)CCNC(=O)C1CCCN(S(=O)(=O)c2cccc3nsnc23)C1 (stereo unspecified) the “activity change, negative = cytotoxicity” value was inactive: 4.69%.
With COc1ccccc1-c1noc(CCCC(=O)Nc2cc(C)ccc2C)n1 the “activity change, negative = cytotoxicity” value was inactive: 7.78%.
For COc1ccc(C(=O)Nc2ccc(C(=O)OCc3cc(=O)n4nc(C5CC5)sc4n3)cc2)cc1, the “activity change, negative = cytotoxicity” value was inactive: 9.4%.
In the case of O=C(CN1CCSc2ccccc21)N1CCN(c2ccc(F)cc2)CC1, the “activity change, negative = cytotoxicity” value is reported as inactive: 12.8%.
For Cc1ccc(N(C)C(=O)c2cc(S(=O)(=O)N3CCOCC3)cn2C)cc1, the “activity change, negative = cytotoxicity” value was inactive: 4.51%.
In the case of CCCN(Cc1cccs1)C(=O)Nc1cc(OC)ccc1OC, the “activity change, negative = cytotoxicity” value is reported as inactive: 3.21%.
With COc1ccc(CCNC(=O)CCCCn2c(=O)c3ccccc3n(Cc3ccccc3Cl)c2=O)cc1OC the “activity change, negative = cytotoxicity” value was inactive: -2.27%.
In the case of CCOC(=O)c1c(C)[nH]c(C)c1S(=O)(=O)NCC(=O)N1CCN(c2ccccc2OC)CC1, the “activity change, negative = cytotoxicity” value is reported as inactive: -0.0557%.
For COc1ccc(OC)c(S(=O)(=O)NCCc2csc(-c3cccc(F)c3)n2)c1, the “activity change, negative = cytotoxicity” value was inactive: -0.479%.
For CCN(CC)C(=O)Nc1ccc2c(c1)N(Cc1ccccc1)C(=O)c1ccccc1S2, the “activity change, negative = cytotoxicity” value was inactive: -0.661%.
For Cc1ccc(-n2nc3c(N4CCC(C(=O)NCc5ccccc5Cl)CC4)nnc(C)c3c2C)cc1, the “activity change, negative = cytotoxicity” value was inactive: -3.52%.
